Molecular target: T1, outer-membrane usher FimD (Escherichia coli, UniProt P30130 46-878)
T1 sequence: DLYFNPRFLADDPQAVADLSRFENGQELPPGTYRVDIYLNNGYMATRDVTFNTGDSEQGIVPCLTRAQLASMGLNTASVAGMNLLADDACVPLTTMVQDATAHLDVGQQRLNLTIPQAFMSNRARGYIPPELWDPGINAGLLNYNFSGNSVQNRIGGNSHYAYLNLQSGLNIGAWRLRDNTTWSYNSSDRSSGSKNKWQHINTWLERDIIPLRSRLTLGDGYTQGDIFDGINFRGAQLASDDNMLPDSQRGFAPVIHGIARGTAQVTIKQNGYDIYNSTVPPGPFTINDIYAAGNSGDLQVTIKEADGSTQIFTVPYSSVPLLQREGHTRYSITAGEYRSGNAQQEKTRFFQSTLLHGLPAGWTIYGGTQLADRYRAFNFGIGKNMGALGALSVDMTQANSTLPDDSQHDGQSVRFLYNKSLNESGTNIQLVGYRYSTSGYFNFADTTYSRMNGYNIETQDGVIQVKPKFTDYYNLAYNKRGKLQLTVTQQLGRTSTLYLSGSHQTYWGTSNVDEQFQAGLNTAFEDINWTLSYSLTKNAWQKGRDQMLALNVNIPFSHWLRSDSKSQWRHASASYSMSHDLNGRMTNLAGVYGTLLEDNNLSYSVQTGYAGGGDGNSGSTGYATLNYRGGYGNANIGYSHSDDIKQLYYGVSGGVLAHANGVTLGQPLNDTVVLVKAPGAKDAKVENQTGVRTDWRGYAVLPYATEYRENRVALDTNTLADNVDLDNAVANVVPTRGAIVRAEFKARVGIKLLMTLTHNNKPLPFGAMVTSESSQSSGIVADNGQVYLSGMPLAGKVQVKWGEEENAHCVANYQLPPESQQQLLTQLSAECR
Assay: cryo-EM structure
Details: both partners purified

B1: adhesin FimH (wild type) (natural protein)
chain: not shown
notes: also called FimHWT; tip adhesin
- binding result: binds

Reference: paper PMC11459180, “Structural basis for adhesin secretion by the outer-membrane usher in type 1 pili” (Proceedings of the National Academy of Sciences of the …, 2024)
